# Results taken from the supplement of paper PMC10126150.
# Values marked as one replicate rest on one cluster of the flow cell; about a third of the high ones do not repeat.
# Tested on: ATP
# Assay: switch fluorescence ratio, 500 uM ATP over buffer (Cy3 cluster intensity, sum of 5 cycles each) (fold (ratio)); higher = stronger signal-on switching upon ATP binding; sequences stand for … in TCGTCGGCAGCGTCAGATGTGTATAAGAGACAGTTTTTTTTTTTTTTTTTTTTTTTTT…TC
# Conditions: aptamer strand: ATP DNA aptamer (quencher-CACCTGGGGGAGTATTGCGGAGGAAGG + anchor), 100 nM annealed; ATP concentration: 500 uM; one replicate
# How it was run: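 Clusters carrying Cy3-labelled switching strands on a modified Illumina MiSeq flow-cell were annealed to 100 nM quencher-labelled ATP aptamer and imaged in selection buffer. They were imaged again after 15 min with 500 uM ATP at 22 °C, over five buffer/ATP cycles with NaOH stripping and re-annealing in between. For each cluster, the fluorescence ratio is the summed Cy3 intensity of the target cycles divided by that of the buffer cycles, averaged per switch-domain sequence. Clusters outside 100-1000 RFU were left out.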
# 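Also: ATP exposure 15 min at 22 °C before imaging.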
row,Sequence,switch fluorescence ratio
1,TTTGCCAGAG,1.07
2,TTTGCCAGGG,1.06
3,TTTGCCCGAA,0.972
4,TTTGCGCCCT,0.956
5,TTTGCGCGCC,0.917
6,TTTGCGCTGG,0.997
7,TTTGCTCCGT,4.27
8,TTTGCTGGG,0.985
9,TTTGGCCTCC,1.03
10,TTTGGCGCCG,0.964
11,TTTGGGACCC,1.04
12,TTTGGGTAGC,1.01
13,TTTGGTATTG,0.995
14,TTTGGTGACA,0.993
15,TTTGGTGTT,0.973
16,TTTGTACACC,1.01
17,TTTGTACCCC,1.04
18,TTTGTACGTT,1.04
19,TTTGTATTTC,0.962
20,TTTGTCACAG,1.05
21,TTTGTCCAGG,1.25
22,TTTGTCGTTC,0.974
23,TTTGTCTGAA,1.01

row,Sequence,switch fluorescence ratio
1,TTTGTCTTCT,0.991
2,TTTGTGGAG,0.998
3,TTTGTGGTT,0.95
4,TTTGTGTA,0.981
5,TTTGTTAT,1.01
6,TTTGTTGAAC,1.01
7,TTTTAAATAC,1.21
8,TTTTAAGGCG,0.958
9,TTTTAAGGTT,1.01
10,TTTTAAGTTA,1.03
11,TTTTACAGAA,1
12,TTTTACCGCT,1.05
13,TTTTAGACTA,0.995
14,TTTTAGGTC,0.957
15,TTTTATCAAA,1.03
16,TTTTATCGA,0.998
17,TTTTATGACT,0.983
18,TTTTATTTG,0.983
19,TTTTCAAACG,1.03
20,TTTTCACATA,1.04
21,TTTTCAGTCG,1
22,TTTTCATCGA,1.02
23,TTTTCCCGGC,1.02

row,Sequence,switch fluorescence ratio
1,TTTTCCGTTA,1.03
2,TTTTCCTAAG,1.03
3,TTTTCGTCGT,1.01
4,TTTTCGTGAC,1.06
5,TTTTCTAAAA,0.978
6,TTTTCTCCTG,1.06
7,TTTTCTGAAG,1
8,TTTTCTGCTG,1.06
9,TTTTGATGTG,0.997
10,TTTTGCCTTT,0.983
11,TTTTGCGAGC,1
12,TTTTGCTGAA,1
13,TTTTGGCCT,1.03
14,TTTTGTATGT,1.01
15,TTTTGTGACT,0.971
16,TTTTTAGTCA,0.977
17,TTTTTAT,0.972
18,TTTTTATACC,1.04
19,TTTTTCCAGA,1.01
20,TTTTTCGCCG,1.41
21,TTTTTGAACC,1
